Laboratory results published in the RNAGym collection of RNA variant scans (doi:10.7554/elife.90254).
The source gives no read counts; variants with many changes may rest on few reads.

B1: LINE1-mini (parent)
chain: GGCAGAGCUCAACACAGCGUGGCAAAGUGGCUGUGGCUAGACUGCC

Variants of: B1
Test: self-cleavage, relative activity (ratio to wild type); higher = more cleavage; in vitro, sequencing; the parent is a self-cleaving ribozyme

Which self-cleavage does the source give for A6U C15U C42G here?
The self-cleavage was 0.01.

Which self-cleavage does the source give for A6U C15U U20C here?
Its self-cleavage is 0.04.

For A6U C18A C23U A24C, which self-cleavage is on record?
The self-cleavage was 0.51.

For A6U C18A G21A C46U, which self-cleavage is on record?
Its self-cleavage is 2.8.

With A6U C18G C37U as the variant, how does the self-cleavage read?
The self-cleavage was 0.06.

With A6U C18G G19C C23G A25G as the variant, how does the self-cleavage read?
The self-cleavage was 1.48.

With A6U C18G G30C as the variant, how does the self-cleavage read?
The self-cleavage was 1.2.

With A6U C18G U20C G21U G36C as the variant, how does the self-cleavage read?
Its self-cleavage is 0.04.

With A6U C18G U28C C46A as the variant, how does the self-cleavage read?
The self-cleavage was 0.52.

With A6U C18U A24U U28G as the variant, how does the self-cleavage read?
The self-cleavage was 0.07.

With A6U C18U G21A U38A A39U as the variant, how does the self-cleavage read?
The self-cleavage was 1.35.

With A6U C18U G21C C45A as the variant, how does the self-cleavage read?
The self-cleavage was 0.34.

For A6U C18U G21U G44C C46A, which self-cleavage is on record?
The self-cleavage was 0.03.

With A6U C23A G36U C45G as the variant, how does the self-cleavage read?
The self-cleavage was 0.23.

Which self-cleavage does the source give for A6U C23A U32A G40C C46U here?
The self-cleavage was 0.04.

With A6U C23A U38G A39C as the variant, how does the self-cleavage read?
Its self-cleavage is 0.04.

For A6U C23G G35A G44U, which self-cleavage is on record?
The self-cleavage was 0.05.

With A6U C23U C42G C45A as the variant, how does the self-cleavage read?
Its self-cleavage is 0.03.

With A6U C23U G33A G40C as the variant, how does the self-cleavage read?
The self-cleavage was 0.39.

For A6U C23U G36U U43A, which self-cleavage is on record?
Its self-cleavage is 0.14.

Which self-cleavage does the source give for A6U C31U U32G C46A here?
Its self-cleavage is 0.06.

With A6U C37G C46U as the variant, how does the self-cleavage read?
The self-cleavage was 0.01.

For A6U G7A A11C C13G C37U, which self-cleavage is on record?
The self-cleavage was 0.02.

With A6U G7A A11U as the variant, how does the self-cleavage read?
Its self-cleavage is 0.03.

For A6U G7A C31U, which self-cleavage is on record?
Its self-cleavage is 0.26.

With A6U G7A C37A as the variant, how does the self-cleavage read?
Its self-cleavage is 0.09.

With A6U G7C A11G as the variant, how does the self-cleavage read?
Its self-cleavage is 0.04.

Which self-cleavage does the source give for A6U G7C A12C U20A A41G here?
Its self-cleavage is 0.

For A6U G7C C10A A14U A24G A39C C46A, which self-cleavage is on record?
Its self-cleavage is 0.01.

With A6U G7C C10A G19A G27A as the variant, how does the self-cleavage read?
The self-cleavage was 0.01.

Which self-cleavage does the source give for A6U G7C C23G A26G here?
Its self-cleavage is 0.45.

With A6U G7C C37A C46A as the variant, how does the self-cleavage read?
Its self-cleavage is 0.08.

For A6U G7C G17A C42G C45A, which self-cleavage is on record?
Its self-cleavage is 0.05.

Which self-cleavage does the source give for A6U G7C G40U here?
The self-cleavage was 0.1.

Which self-cleavage does the source give for A6U G7C U9G A11U G21A U32G A39G here?
Its self-cleavage is 0.

With A6U G7U A11G G30A U32A as the variant, how does the self-cleavage read?
Its self-cleavage is 0.

For A6U G7U A12C, which self-cleavage is on record?
Its self-cleavage is 0.05.

With A6U G7U C10A C23U as the variant, how does the self-cleavage read?
The self-cleavage was 0.02.

With A6U G7U C10A G22C C31A U34A C46U as the variant, how does the self-cleavage read?
The self-cleavage was 0.01.

Which self-cleavage does the source give for A6U G7U C10G G21A U32C A39G C42G here?
Its self-cleavage is 0.02.

For A6U G7U C13A A24G, which self-cleavage is on record?
The self-cleavage was 0.17.

With A6U G7U C23G C45G as the variant, how does the self-cleavage read?
Its self-cleavage is 0.

Which self-cleavage does the source give for A6U G7U C31G G35U here?
Its self-cleavage is 0.03.

For A6U G7U U9A A12U U34A, which self-cleavage is on record?
Its self-cleavage is 0.23.

Which self-cleavage does the source give for A6U G17A C42U here?
Its self-cleavage is 0.01.

Which self-cleavage does the source give for A6U G17A G29U G35U here?
The self-cleavage was 0.04.

With A6U G17A G44U as the variant, how does the self-cleavage read?
Its self-cleavage is 0.02.

With A6U G17C C23A G30A U38A as the variant, how does the self-cleavage read?
The self-cleavage was 0.42.

For A6U G17C G29C G36U U43C, which self-cleavage is on record?
The self-cleavage was 0.13.

With A6U G17C U28G as the variant, how does the self-cleavage read?
The self-cleavage was 0.51.

For A6U G17U A24C G36C, which self-cleavage is on record?
Its self-cleavage is 0.08.

For A6U G17U A25G G35C C45A, which self-cleavage is on record?
Its self-cleavage is 0.01.

With A6U G17U C18U A25G G36U A41G as the variant, how does the self-cleavage read?
Its self-cleavage is 0.01.

Which self-cleavage does the source give for A6U G17U C42G here?
Its self-cleavage is 0.06.

With A6U G17U G40A A41U as the variant, how does the self-cleavage read?
Its self-cleavage is 0.19.

For A6U G19A G27C U32G A39U, which self-cleavage is on record?
Its self-cleavage is 0.09.

Which self-cleavage does the source give for A6U G19A G29A A41U C45A here?
Its self-cleavage is 0.09.

With A6U G19A U20A G27C A39U as the variant, how does the self-cleavage read?
Its self-cleavage is 0.06.

For A6U G19A U28A, which self-cleavage is on record?
The self-cleavage was 0.63.

For A6U G19U C23A, which self-cleavage is on record?
The self-cleavage was 0.5.

Which self-cleavage does the source give for A6U G21A A24C G30A G33A G44C here?
The self-cleavage was 0.03.

Which self-cleavage does the source give for A6U G21A A41U here?
The self-cleavage was 0.11.

For A6U G21A C42U, which self-cleavage is on record?
Its self-cleavage is 0.45.

With A6U G21A G27C G33U G36U as the variant, how does the self-cleavage read?
The self-cleavage was 0.06.

For A6U G21A G29A C42A, which self-cleavage is on record?
Its self-cleavage is 0.17.

Which self-cleavage does the source give for A6U G22A U28A G35A C42A here?
Its self-cleavage is 0.16.

Which self-cleavage does the source give for A6U G22U U28C U38G here?
The self-cleavage was 0.01.

With A6U G27A C37G as the variant, how does the self-cleavage read?
The self-cleavage was 0.03.

For A6U G27C A41C, which self-cleavage is on record?
Its self-cleavage is 0.05.

For A6U G27C C31G, which self-cleavage is on record?
The self-cleavage was 0.05.

Which self-cleavage does the source give for A6U G29A C31A here?
Its self-cleavage is 0.49.

Which self-cleavage does the source give for A6U G29A G35A here?
The self-cleavage was 0.03.

Which self-cleavage does the source give for A6U G33A A39U A41G here?
The self-cleavage was 0.04.

Which self-cleavage does the source give for A6U G33U A39U C42A here?
Its self-cleavage is 0.07.

For A6U G33U C37G C45G, which self-cleavage is on record?
Its self-cleavage is 0.01.

Which self-cleavage does the source give for A6U G33U G40U here?
The self-cleavage was 0.12.

For A6U G35U C37U U38G, which self-cleavage is on record?
Its self-cleavage is 0.03.

For A6U G35U G36A C37U, which self-cleavage is on record?
The self-cleavage was 0.72.

For A6U G40U C42A U43A, which self-cleavage is on record?
Its self-cleavage is 0.45.

With A6U G40U C45U as the variant, how does the self-cleavage read?
Its self-cleavage is 0.16.

Which self-cleavage does the source give for A6U U9A A26C here?
Its self-cleavage is 0.09.

Which self-cleavage does the source give for A6U U9A C10U C23U A24U A25U here?
The self-cleavage was 0.19.

Which self-cleavage does the source give for A6U U9A G21U G33U here?
Its self-cleavage is 0.09.
